# Results reported in PubChem BioAssay AID1346428 (National Center for Advancing Translational Sciences (NCATS), 2018).
# In all, about 48,000 compounds went through this assay and about 1,200 (2.5%) were called active. Inconclusive results (about 2%) are left out.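 How the source made its calls: active means activation of at least 60% and not above a set upper limit (about 1 call in 100 departs from these limits); inconclusive means activation of 40% to 60%, or above that upper limit; inactive means activation under 40%.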 Some of the results follow.
# Target: Probable G-protein coupled receptor 32 (Homo sapiens) (UniProt O75388)
# Chain of UniProt O75388 (O75388 whole entry, looked up): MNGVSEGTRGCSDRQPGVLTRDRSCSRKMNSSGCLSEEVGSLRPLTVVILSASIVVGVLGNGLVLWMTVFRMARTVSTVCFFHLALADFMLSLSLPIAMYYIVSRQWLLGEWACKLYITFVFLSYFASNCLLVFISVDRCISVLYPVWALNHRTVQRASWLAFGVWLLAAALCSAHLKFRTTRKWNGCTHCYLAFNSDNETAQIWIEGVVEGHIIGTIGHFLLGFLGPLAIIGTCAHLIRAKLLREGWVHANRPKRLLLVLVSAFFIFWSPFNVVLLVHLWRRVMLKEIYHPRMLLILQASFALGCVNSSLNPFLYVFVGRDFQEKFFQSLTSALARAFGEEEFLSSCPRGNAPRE
# Assay: qHTS for Agonists of Human Resolvin D1 Receptor DRV1; further: 0% is about no effect
# Conditions: CHO-K1 GPR32 beta-arrestin PathHunter luminescence, 90 min; at 76.9 µM; hits give high values; zero percent set by DMSO-only wells
# How it was run: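 CHO-K1 cells stably expressing ProLink-tagged GPR32 and Enzyme Activator-tagged beta-arrestin were seeded at 2,500 cells/well overnight, exposed to compounds for 90 min at 37 °C, then read by beta-Gal complementation chemiluminescence after 1 h detection reagent.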
row,Structure (SMILES),activation
1,COc1ccc(OC)c(NC(=O)CSc2ccnc(=O)[nH]2)c1,inactive: -6.77%
2,COc1ccccc1N1CCN(S(=O)(=O)c2c(C)sc3ncn(CC(=O)Nc4cccc(Cl)c4)c(=O)c23)CC1,inactive: 0.399%
3,Cc1ccc2c(c1)NC(=O)C(CC(=O)Nc1cc(Cl)ccc1C)O2 (centres undefined),inactive: -4.9%
4,COc1ccc(C2CC(c3c(O)n(C4CCCCC4)c(=O)[nH]c3=O)=Nc3ccccc3S2)cc1 (centres undefined),inactive: 0.48%
5,COC(=O)c1c(-c2ccc(Cl)cc2)noc1N1CCN(c2ccc(OC)cc2)CC1,inactive: -3.67%
6,CCc1nn2c(=O)cc(COC(=O)CNC(=O)c3ccccc3)nc2s1,inactive: -23.2%
7,COc1cc(OC)c(Nc2cc(C)nc3ncnn23)cc1Cl,inactive: -2.14%
8,O=C(Nc1ccc(Br)cc1)C1CCN(c2cnccn2)CC1,inactive: 2.24%
9,CCOc1ccc(C(=O)Nc2cccc(NC(=O)c3ccco3)c2)cc1Cl,inactive: -11.5%
10,CCN(CC)S(=O)(=O)c1nnc(NC(=O)COc2ccccc2Cl)s1,inactive: 13.6%
11,COc1ccccc1CNC(=O)c1ccc(N2CCCC2)c(NC(=O)NCc2ccccc2)c1,inactive: -16.9%
12,CCC(C(=O)N1CCN(c2ccccc2)CC1)n1nc(C)n2c(cc3sccc32)c1=O (centres undefined),inactive: -2.4%
13,O=C(COc1ccccc1F)OCc1cc(=O)n2nc(-c3cccs3)sc2n1,inactive: 9.2%
14,Cn1c(=O)c2c(SCC(=O)N3CCc4ccccc43)nc(-c3ccccc3Cl)nc2n(C)c1=O,inactive: -28.4%
15,Cc1nc(-c2ccccc2)sc1-c1ccc(SCC(=O)NCc2ccc(F)cc2)nn1,inactive: -2.77%
16,CCC(CC)C(=O)NC1CC(=O)N(c2ccc3c(c2)OCCO3)C1 (centres undefined),inactive: -0.134%
17,CC1=Nc2cc(C(=O)NCCc3ccc(Cl)cc3)ccc2Sc2ccc(C)cc21,inactive: -23.7%
18,Cc1ccc(-c2nc3cccnc3s2)cc1NC(=O)C(C)C,inactive: -3.3%
19,Cc1ccc(-c2ccc(=O)n(Cc3cc(C)ccc3C)n2)cc1,inactive: 11.5%
20,COC(=O)C(Cc1c[nH]c2ccccc12)NC(=O)COc1ccc(Cl)cc1Cl (centres undefined),inactive: -2.55%
21,CCOc1ccc(-n2c(SCC(=O)N3CCCC3)nc3c([nH]c4ccccc43)c2=O)cc1,active: 77.3%
22,CCOc1ccc(-n2c(CCC(=O)O)ccc2-c2ccc(Br)cc2)cc1,inactive: -1.6%
23,CCN(c1cc(C)cc(C)c1)S(=O)(=O)c1nnc(NC(=O)c2cccs2)s1,inactive: 33.7%
24,CCc1ccc(CNC(=O)CCSCc2ccccc2F)cc1,inactive: -17.2%
25,Cc1cccc(NS(=O)(=O)c2ccc3[nH]c(=O)ccc3c2)c1C,inactive: -18.6%
26,COc1cc(NC(=O)Cn2c(=O)oc3cc(S(=O)(=O)N4CCCCCC4)ccc32)cc(OC)c1,inactive: 0.553%
27,COc1ccc(C(=O)c2cn(CC(=O)Nc3ccc4c(c3)OCCO4)c3ccc(OC)cc3c2=O)cc1,inactive: 4.83%

row,Structure (SMILES),activation
1,Cc1oc2ccc(O)c(CN(C)Cc3ccccc3)c2c1C(=O)Nc1cccc(C(F)(F)F)c1,inactive: 17.6%
2,COc1ccccc1OCCn1c(-c2ccc(Cl)cc2)nc2ccccc2c1=O,inactive: 10%
3,O=C(Cn1c(=O)nc(-c2ccccc2)c2ccccc21)Nc1ccc(Cl)c(C(F)(F)F)c1,inactive: -2.91%
4,CCN(C(=O)Cc1nc(-c2ccc(OC)cc2)no1)c1cccc(Cl)c1,inactive: -22.3%
5,O=C(CSc1nc(-c2ccccc2)no1)N1CCN(c2ccccc2F)CC1,inactive: 1.39%
6,COc1cccc(C2=CC(c3ccc(OC)c(OC)c3OC)n3ncnc3N2)c1 (centres undefined),inactive: 4.26%
7,Cc1cc(C)cc(-n2nnc(-c3nc(-c4ccc5c(c4)OCO5)no3)c2C)c1,inactive: -4.44%
8,Nc1ccc2c(c1)CN1C(=O)c3ccccc3C1=N2,inactive: 13.6%
9,Cc1ccc(C(=O)NCCn2c(C)cc3ccccc32)cc1C,inactive: 6.48%
10,CCC(=O)N1c2ccc(S(=O)(=O)N3CCN(c4ccccc4)CC3)cc2CC1C (centres undefined),inactive: 17.6%
11,CC(=O)c1ccc(NC(=O)c2cn3c4c(ccc(Cl)c4c2=O)OC(C)C3)cc1 (centres undefined),inactive: 14.1%
12,COc1cc2c(=O)n(CCC(=O)NCC3CCCO3)c(=O)n(CC(=O)Nc3ccc(C)cc3)c2cc1OC (centres undefined),inactive: 0.883%
13,Cc1ccc(S(=O)(=O)C(CNC(=O)C(=O)NCc2ccc(Cl)cc2)c2cccs2)cc1 (centres undefined),inactive: -10.1%
14,Cc1c(NC(=O)c2ccc(OC(C)C)cc2)cccc1-c1nc2ncccc2o1,active: 88.9%
15,Cc1ccc(S(=O)(=O)c2cn(CC(=O)Nc3ccc(C)c(Cl)c3)c3ccc(C)cc3c2=O)cc1,inactive: -12%
16,CC(Oc1ccc(F)cc1)C(=O)NCC1(N(C)C)CCCCC1 (centres undefined),inactive: -3.08%
17,Cc1ccc(CNC(=O)C2CCCN(S(=O)(=O)c3ccc4c(c3)oc(=O)n4C)C2)cc1 (centres undefined),inactive: -4.57%
18,O=C1CN(C(=O)c2ccc(S(=O)(=O)N3CCCCC3)cc2)C(c2ccc(F)cc2)c2cc(F)ccc2N1 (centres undefined),inactive: -17.9%
19,COc1cccc(C(=O)NCCSc2c(-c3ccc(F)cc3)[nH]c3ccccc23)c1OC,inactive: -12%
20,CC(C)Oc1ccc(CNC(=O)CCCn2c(=O)c3cccn3c3ccccc32)cc1,inactive: -21.2%
21,CCCS(=O)(=O)Nc1cc(-c2cn3cccc(C)c3n2)ccc1C,inactive: -1.65%
22,COc1ccc(-c2cn3nc(N4CCC(C(=O)NCc5ccccc5F)CC4)sc3n2)cc1,inactive: -2.18%
23,Cc1ccc(NCc2cccn2-c2nnc(N3CCC(C(=O)NC(C)C)CC3)s2)cc1,inactive: -22.3%
24,Cc1ccc(S(=O)(=O)N2CCCc3cc(NS(=O)(=O)c4ccc(F)c(C)c4)ccc32)cc1,inactive: -11.4%
25,COc1ccc(-c2cc(C(F)(F)F)c(C#N)c(SCC(=O)Nc3ccc(F)cc3)n2)cc1,inactive: -3.11%
26,CCOC(=O)c1c(NC(=O)CS(=O)(=O)c2ccc(C)cc2)sc2c1CCCCC2,inactive: -31.2%
27,COc1ccc(NC(=O)Cn2c(=O)oc3cc(S(=O)(=O)NC4CCCC4)ccc32)cc1OC,inactive: -3.41%
